Drawing on the RNAGym collection of RNA variant scans (doi:10.7554/elife.90254), this text covers self-cleavage for 167 variants.

The labels stand for the following.
B1: LINE1-mini (parent)
chain: GGCAGAGCUCAACACAGCGUGGCAAAGUGGCUGUGGCUAGACUGCC

The source gives no read counts; variants with many changes may rest on few reads.

The series covers variants of B1. Kind of series: self-cleavage, relative activity (ratio to wild type); higher = more cleavage; in vitro, sequencing; the parent is a self-cleaving ribozyme.
For C3A U28A C46U, the self-cleavage was found to be 0.44.
The figure for C3G A4U G22C C37G is 0.01; for C3A G22C G30A U43G G44C C45U it is 0.04.
For C3A G22U A41C, the self-cleavage is 0.11.
C3A G22A A25U U34A: the self-cleavage was found to be 0.11.
The value for C3G A11C C18A was 0.1; that for C3G A25G G33U was 0.15.
The value for C3G A6G G7U A25C was 0.06; that for C3A G27A G33A U34A was 0.23.
As to C3G A6G C31G C37U A39C, the self-cleavage amounted to 0.02.
The value for C3G C8A A25G G36C C37U was 0.48.
Take C3G A4G G21U G29U A41C: the self-cleavage was found to be 0.13.
Regarding C3G A11G G35U C45G, the self-cleavage amounted to 0.02.
With C3A U9A U28A C45U, the self-cleavage worked out at 0.12.
Take C3A G21C G27U G30U: the self-cleavage was 0.59.
Turning to C3G A11G G19A G35U, the self-cleavage is 0.
Regarding C3G A25C U43A C46G, the self-cleavage amounted to 0.01.
With C3G C10G U20C, the self-cleavage came out at 0.04.
Take C3G A6G U20C: the self-cleavage stood at 0.09.
The figure for C3G A12G G17U G27C is 0.1; for C3A U28G G29U it is 0.18.
Regarding C3G A4G A16U G22C G27U G30U G33U C37G, the self-cleavage turned out to be 0.16.
The value for C3G C15A U28G was 0.09; that for C3A G30A G35C was 0.38; that for C3A U9C U38C was 0.07.
With C3G C10A C15U G21U C23A C42U, the self-cleavage came out at 0.03.
The figure for C3A U34G C37U is 0.24; for C3G C10A A24G it is 0.1; for C3G C10G U28G U32A A39U C45A it is 0.02.
The value for C3G C10A C23G A25G was 0.
Take C3A G33A U38C A41U: the self-cleavage was 0.03.
The figure for C3G A4G G27U A39G C42U U43A is 0.31; for C3G A4G G36U it is 0.09; for C3A U20C A39G C45A it is 0.06.
The value for C3A G29U A41U was 0.38; that for C3G A6C G29U was 0.27.
The figure for C3G A16G C18G G19U U38G is 0.07; for C3G A4C C8U C10A it is 0.03; for C3A U9C G17C G33A G40A C46A it is 0.01.
In the case of C3A U34C C42G G44A, the self-cleavage turned out to be 0.08.
The figure for C3G C8A A24U C42A is 0.12; for C3G C8U A16G it is 0.04; for C3G A4U G29A it is 0.16.
The figure for C3A G40A U43A is 0.01; for C3G C15A C18A it is 0.02; for C3G A11C C23G G29A C31A C45A it is 0.01.
The value for C3A U28G A39C C46A was 0.07; that for C3A U28C G36A G40A U43G C45U was 0.16; that for C3A G22A A24G U28A G30C C31A was 0.15.
For the variant C3A G30A C37U, the self-cleavage was determined as 0.47.
The figure for C3G A11U A26G G27U is 0.05; for C3A U20G C23A A25C C46U it is 0.1; for C3G A4U A24C G29C it is 0.04.
The value for C3G C8G C10U G17A G40U was 0.03.
The figure for C3G A14C C18G G19C G22C G33C C46U is 0.03; for C3G A4C C8G G17U G22C G33U it is 0.06.
For C3G C8A U9C C10A G36A, the self-cleavage came out at 0.1.
The value for C3G C8U U9G C10U U20G was 0.04; that for C3G A14U C18U C42U was 0.07; that for C3A U9G G22U was 0.33.
Regarding C3A U9A C13U G21C A24U, the self-cleavage was determined as 0.38.
Take C3G C10A G30U C37A: the self-cleavage is 0.02.
For C3A U9A A12C G21C G36C, the self-cleavage was found to be 0.02.
The value for C3G C15U A26C U43C was 0.05; that for C3A G33C A41C was 0.07.
For the variant C3G A4G U20G G33C, the self-cleavage was determined as 0.03.
Regarding C3G A4U G35C G40U U43G, the self-cleavage came out at 0.08.
On to C3G A12U C45U, for which the self-cleavage is 0.08.
The figure for C3A U9G G27U is 0.16; for C3A U9C C23U U28G A39U it is 0.01; for C3G C13A A25G C45G it is 0.03.
As to C3G C8G U34G, the self-cleavage turned out to be 0.05.
The value for C3G C8G U34A was 0.04.
Take C3G C15U U28C G30A: the self-cleavage was found to be 0.24.
The figure for C3G C13G G22C is 0.12; for C3G C8A A11G it is 0.05.
The value for C3G C10A G35A was 0.03; that for C3G A11C G17C G27U was 0.02; that for C3G A16U C31U G44U was 0.1.
The value for C3G A6C A24C was 0.25; that for C3A U32A U34C U38G was 0.18; that for C3G A12U U34A was 0.12.
C3G A11C G33C U34C: the self-cleavage is 0.01.
The value for C3G A4U A25U U28C G35A U38A A41G was 0.01.
The figure for C3A G33U G40A is 0.05; for C3A G29A G40C it is 0.05; for C3G A4U G36A C46U it is 0.19.
Regarding C3A G22C G36A, the self-cleavage was 0.51.
Take C3G C13A G27U G36U: the self-cleavage came out at 0.14.
The value for C3G C10A U38G was 0.04; that for C3G A16U U20A G21A U43G was 0.01; that for C3G A12U A14C was 0.05.
With C3A G22C A26G G30A C31G U34A, the self-cleavage was determined as 0.06.
Turning to C3G C8A U28A A41G, the self-cleavage amounted to 0.15.
For C3G A16G G17U U28C U32G C42A, the self-cleavage is 0.45.
The figure for C3A U9G C15A C42U is 0.28.
For C3G A16U G44A, the self-cleavage is 0.06.
C3G C15G U38C: the self-cleavage came to 0.1.
The figure for C3A G21U A25G G30A is 0.46.
On to C3A G29U G33C, for which the self-cleavage was 0.14.
The value for C3G A12U U32A U34G was 0.01; that for C3G C10A C13U G19C C23U A39U was 0.01; that for C3A G35C C37A was 0.18.
Take C3G A24U C42G: the self-cleavage is 0.06.
Take C3G C10A G29C G33C U34A: the self-cleavage is 0.01.
The value for C3G A6G U28G G40U A41U was 0.1; that for C3A U20A G35U C45G was 0.05; that for C3G A4G C18A G29A G30C was 0.09.
As for C3G C10G G22U G44A C46A, the self-cleavage worked out at 0.02.
The value for C3A G33U C46G was 0.16; that for C3G A24C C37A was 0.12; that for C3G A24U C45A was 0.2.
The figure for C3G A24C G30A G36U is 0.05; for C3A U20C G22U it is 0.71.
For C3A G21C U43G, the self-cleavage stood at 0.03.
The figure for C3G C8A G22U is 1; for C3A U28G A41C it is 0.05.
As for C3A G29U C42U, the self-cleavage amounted to 0.34.
The figure for C3G A16U C46U is 0.04.
For C3G C15A G19A C31G G35A C45U, the self-cleavage amounted to 0.09.
The figure for C3G C13U A24G G27U C31G U32A U43A G44U is 0.03; for C3G C15U A26U it is 0.33; for C3G A4U C15U it is 0.19.
The figure for C3G A6G C23A is 0.11; for C3A G22A G30U G35A it is 0.15.
The figure for C3A G29C C31A is 0.26; for C3G A11U C15A it is 0.03; for C3G C18A A39U it is 0.04.
With C3A U9G C10G, the self-cleavage was 0.02.
Turning to C3G C8G A26G U32G G33U, the self-cleavage amounted to 0.01.
Regarding C3G A4U C10U G36A, the self-cleavage turned out to be 0.21.
Consider C3G A4U C10U G36U, for which the self-cleavage amounted to 0.03.
The value for C3G A11G G22C was 0.
C3G A4G G17U A26C G36A: the self-cleavage is 0.13.
The value for C3G A6G G7A G27C was 0.07.
The value for C3G C13A A14C was 0.27.
As to C3G A16U G19C C45A, the self-cleavage was 0.28.
The figure for C3G C13G G19U G40U is 0.19.
As to C3G A12U G27U, the self-cleavage is 0.06.
The figure for C3G C8G U28C U38G is 0.14; for C3G C13U U32C G33U C37G U38A it is 0.45.
The figure for C3G C13U G21U A41G C45U is 0.18; for C3G A11U G29C it is 0.02; for C3G C13U U34C U43C it is 0.09.
The value for C3G C10A G33U U43C was 0.01; that for C3A G22A U38G C45G was 0.27.
In the case of C3G C15A A26C G27A G33U, the self-cleavage came out at 0.43.
The figure for C3G A6C C8A U32A is 0.19.
The figure for C3G C10G G21U A24U is 0.06; for C3G A12U C18A C37G G40U it is 0.05; for C3G A14U G36A it is 0.09.
As to C3G A6G G33U U38A C45G, the self-cleavage came out at 0.09.
The figure for C3G A12G G33C is 0.14; for C3G A4G G33U C46A it is 0.13; for C3G A6U U32A G33C it is 0.12.
With C3A U9G C18U C37A A41G C46G, the self-cleavage is 0.14.
The figure for C3G C10A U20G C23G C31G C37A is 0.
Turning to C3G C18A C42U U43A, the self-cleavage amounted to 0.03.
Consider C3G C15U C23A, for which the self-cleavage worked out at 0.49.
The figure for C3A U9A G17A C37G is 0.45; for C3G C8A U32C it is 0.17; for C3G A4G U9C C13U G19C C37U it is 0.
Regarding C3G C10G U28C G33U, the self-cleavage amounted to 0.02.
The figure for C3G A11U A25G is 0.02; for C3G C15U C37U it is 0.36; for C3A U9G C18G G35A G36U it is 0.66.
The figure for C3G C10A C46A is 0.03.
